This is one part of the list.

For the test, the system named is PF3D7_0420300 AP2 domain 1 (GST-tagged). Put plainly: gcPBM binding intensity (ln(normalized median fluorescence intensity)); higher = stronger DNA binding. In outline: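 An Agilent 4 × 180k array of primer-extended double-stranded 36-bp intergenic genomic probes, with negative controls, was incubated for 1 h with GST-tagged P. falciparum DNA-binding domains expressed in E. coli. Alexa488 anti-GST antibody detected bound protein, scanned at 488 nm. Binding intensity is the highest Masliner-normalised natural-log median intensity across replicate spots of either probe orientation.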
Take “AAAAGTTGTATTTGCACACATAAAAAAAAGATATTA [CACACA_site3840]”: the “gcPBM binding intensity (ln)” value was 9.24.
As to “AAATTCAAACAAATTACACACATTTTTTTTTAATTT [CACACA_site3596]”, the “gcPBM binding intensity (ln)” value turned out to be 9.57.
The value for “AAAAAAAAAAAAAAATGTACATATATATTTATATAT [XGTACX_site229]” was 9.09; that for “TCAAAGGAATTTTTATGTACATATAAACTTTATTCT [XGTACX_site3432]” was 9.13.
With TATATATATCTTTTGGTGCATATTTCGAATATATGT, the “gcPBM binding intensity (ln)” value turned out to be 9.3.
The same measure for “TATATATTTACATATTGTACAATATAAAAATAATTA [XGTACX_site19]”: 9.05; for “AAAAAAAAAATTGAAAGTACACAAATGGGGTATTAT [XGTACX_site3960]”: 9.46; for “TACTGTTTAAAATATACACACATAATCAAAAAAAAA [CACACA_site2510]”: 9.51.
With “TCGTTATCCATCTTCACACATATATATAGTAATATA [CACACA_site5492]”, the “gcPBM binding intensity (ln)” value was found to be 9.54.
In the case of “ATATTTATGTAATGTTTGATTTTTTTTTTATGTGTG [CACACA_negctrl_site1422]”, the “gcPBM binding intensity (ln)” value turned out to be 9.48.
Regarding “ACATATACATACATATGTACATATACATAAATATAT [XGTACX_site1285]”, the “gcPBM binding intensity (ln)” value stood at 9.29.
The same measure for “CTATACAATAAAAATTGTACATACATATATGTTATA [XGTACX_site5309]”: 9.17.
As for “AATTTTTCTTTTTTTTGTACAGAATATATATTTTAT [XGTACX_site1419]”, the “gcPBM binding intensity (ln)” value is 9.35.
The same measure for ATAATATGTTATTAAGTGCATATTAATTATTATTAT: 9.2; for “AAATTTATAAATTAAAGTACATATTTCTTGAATATT [XGTACX_site859]”: 9.01.
As for “TATTAAATTATATAGACACACATTATGTATATATAT [CACACA_site345]”, the “gcPBM binding intensity (ln)” value was 9.34.
The same measure for “TATAGATACACTTTGTGTACATAAAAATTGTATTAA [XGTACX_site7137]”: 8.96; for “AAATGAAGATTTAAATGTACGAGAGGGTATACAAAT [XGTACX_site5075]”: 9.72.
Consider “CATAATATTAAATCAGTGCAAATATACAGAATAAAT [GTGCAC_site9786]”, for which the “gcPBM binding intensity (ln)” value turned out to be 9.5.
The same measure for “GACTTCTCCATATACACACACCAACAAATATAAAAA [CACACA_site7331]”: 9.68; for “AATAAGCAGAAACACACACACAAAAAAAAAAAAAAA [CACACA_site719]”: 9.75; for “TATGTATAAATATTAACACACAAAAAAAAAAAAAAA [CACACA_site6938]”: 9.24.
The same measure for “ATATAAACAAAGCAGTGCACGTAAACAAAACATATA [CACACA_negctrl_site1076]”: 9.86; for “TACGAAAGGTAATATTGTACATTACAAAATTTTATA [XGTACX_site5512]”: 9.05.
Consider “AATATATACATATATGTACACACATTACAGATGTAC [CACACA_site8227]”, for which the “gcPBM binding intensity (ln)” value stood at 9.48.
Regarding “ATAGAATCTGGTAGCTGTACGAGTCGTAGAGTGCAG [XGTACX_site2026]”, the “gcPBM binding intensity (ln)” value was found to be 9.23.
In the case of “AGGACTAATATTTGAACACACATATAATATATACAT [CACACA_site3998]”, the “gcPBM binding intensity (ln)” value was 9.54.
The same measure for “GAAATGTATATTTTTACATGCAAATAAAATATATAA [TGCATGCA_site439]”: 8.94; for “ATAACGACCTAGACGTGTACATACAAAGGAATGAAA [XGTACX_site4870]”: 9.38.
The value for “CATACACATAGACACACACACATATATACCTATATA [CACACA_site6644]” was 10.1; that for “ACACAATATATATATTGTACATACACATATTTACTA [XGTACX_site1872]” was 9.45.
The same measure for “TTTTTCTTGAATCGAAGTACTTAGGAGGGGATATTT [XGTACX_site2862]”: 9.39.
Consider “GAATATAAACATATTACACACATCTATAGGTACATT [CACACA_site6983]”, for which the “gcPBM binding intensity (ln)” value worked out at 9.7.
For “AAAGTAAAAATATACTGTACAAATTTTTTCCCCTCT [XGTACX_site171]”, the “gcPBM binding intensity (ln)” value turned out to be 9.29.
The same measure for “AAAGAAAGCACATACACACACAAAAAAAAAAAAGAA [CACACA_site776]”: 10.1; for “ATTTTTTAAAAAGTAACACACACTCTTATAAATAAC [CACACA_site7668]”: 9.56; for “ATATTTATATACAAATGTACGCATATAATATATATA [XGTACX_site1232]”: 9.18.
The value for “GATGCACTTTAAAAATGTACTTATACCTTTAATTGT [XGTACX_site6395]” was 9.21; that for “AAACAAAAAAAAAAAAAAAAAAAAAAAAAAAAAAAA [GTGCAC_negctrl_site254]” was 8.6.
The value for “AGAGATTATAAAATATGTACTAAATATTAAATCTTA [XGTACX_site7050]” was 9.1; that for “AAAAAAATATTATAATATATATATATATATATATAT [GTGCAC_negctrl_site399]” was 8.88.
As to “TTATTATTATATGAATGTACTTAAAAATACATTTTG [XGTACX_site2959]”, the “gcPBM binding intensity (ln)” value was found to be 8.98.
The same measure for “ATTCTATATACACGCACACACACTTATATATATATA [CACACA_site3322]”: 10.1.
The value for “CCCTTTTCTAAATATTGTACGTATAAATTATATTAC [XGTACX_site7676]” was 9.2; that for “GTACAGATAAATATTACACACATTTTCATTTTTAAC [CACACA_site5140]” was 9.55; that for “AAAAAGAAAAAACGAAGTACAATTATAAGATTATAT [XGTACX_site410]” was 9.53.
The same measure for “TTGTTCTTTTTTTTTTTATTTTTTAATTTGAAAAGA [CACACA_negctrl_site209]”: 9.12.
“TATGAAAAATATCTTTGTACTTAGAAATATATACAC [XGTACX_site5393]”: the “gcPBM binding intensity (ln)” value is 9.13.
The same measure for “TATGTGCCAAGACACACACACATATTTATATTTATA [CACACA_site6360]”: 9.64; for “GTGATTTAATTGTGTTGTACATATTTATAAATAAAA [XGTACX_site8966]”: 9.17.
Take “AAAAAAAAAAGAAACACACACATTTGTATTTAATAT [CACACA_site5184]”: the “gcPBM binding intensity (ln)” value was found to be 9.78.
Turning to “TTCCATATAATTACATGTACACATTTTGAATAATAT [XGTACX_site3692]”, the “gcPBM binding intensity (ln)” value was 9.37.
The same measure for “AGCACAGACGGACACACACACATATATATATATATA [CACACA_site4341]”: 9.88; for “ATATATATGTATGTATGTACATATTTGAATTTATTT [XGTACX_site8470]”: 9.19; for “ACAGATATACATAAAAAAAAAATAATTTTACATATA [CACACA_negctrl_site929]”: 9.15.
In the case of “TTATAAATTATAGGTACACACAAAAAAAAAAAGAAA [CACACA_site1327]”, the “gcPBM binding intensity (ln)” value came to 9.71.
As for “ATTTGTTACACTAAATGTACATACATACATATATAT [XGTACX_site6175]”, the “gcPBM binding intensity (ln)” value was 9.38.

Values taken from the supplement of paper PMC11417369.
